From patent US10299477B2 (priority 2015, dated 2019) come the findings set out here.

The test system of the assay is Colletotrichum orbiculare. The following applies: 250 ppm, sprayed 2.5 ml/pot before inoculation; evaluated 6-10 days after inoculation.

As to `COc1cc(F)c(-c2c(-c3cccc(OC)c3Cl)ccc(=O)n2C)c(F)c1` [Compound 663], the “Test H (control value class, anthracnose on cucumber)” value (“Test H” for short) is “H (H shows more than 50% of control values)”.
As to `CCOc1cc(F)c(-c2c(-c3cccc(OC)c3Cl)ccc(=O)n2C)c(F)c1` [Compound 664], the “Test H” value is given as “H (H shows more than 50% of control values)”.
In the case of `CCn1c(-c2c(F)cc(OC)cc2F)c(-c2cc(F)cc(F)c2Cl)ccc1=O` [Compound 665] it was “H (H shows more than 50% of control values)”.
In the case of `CCn1c(-c2c(F)cc(OC)cc2F)c(-c2ccccc2Br)cc(Cl)c1=O` [Compound 668] it was “H (H shows more than 50% of control values)”; in that of `COc1cc(F)c(-c2c(-c3cccc(OC)c3Cl)cc(Br)c(=O)n2C)c(F)c1` [Compound 669], “H (H shows more than 50% of control values)”.
As to `CCOc1cc(F)c(-c2c(-c3cccc(OC)c3Cl)cc(Br)c(=O)n2C)c(F)c1` [Compound 670], the “Test H” value is “H (H shows more than 50% of control values)”.
In the case of `COc1cccc(-c2cc(C)c(=O)n(C)c2-c2c(F)cc(F)cc2F)c1Cl` [Compound 671] it was “H (H shows more than 50% of control values)”; in that of `COc1cc(F)c(-c2c(-c3cccc(OC)c3Cl)cc(C)c(=O)n2C)c(F)c1` [Compound 672], “H (H shows more than 50% of control values)”; in that of `CCOc1cc(F)c(-c2c(-c3cccc(OC)c3Cl)cc(C)c(=O)n2C)c(F)c1` [Compound 673], “H (H shows more than 50% of control values)”.
In the case of `CCn1c(-c2c(F)cc(F)cc2F)c(-c2cccc(F)c2C)ccc1=O` [Compound 674] it was “H (H shows more than 50% of control values)”; in that of `COc1cc(F)c(-c2c(-c3cc(F)cc(F)c3Cl)ccc(=O)n2C)c(F)c1` [Compound 676], “H (H shows more than 50% of control values)”; in that of `COc1cc(F)c(-c2c(-c3cc(F)cc(F)c3Cl)ccc(=O)n2CC(F)F)c(F)c1` [Compound 678], “H (H shows more than 50% of control values)”.
In the case of `COc1cc(F)c(-c2c(-c3cc(F)cc(F)c3Cl)cc(Cl)c(=O)n2CC(F)F)c(F)c1` [Compound 679] it was “H (H shows more than 50% of control values)”.
Take `Cn1c(-c2c(F)cc(Br)cc2F)c(-c2cc(F)ccc2Cl)ccc1=O` [Compound 680]: the “Test H” value was “H (H shows more than 50% of control values)”.
In the case of `Cn1c(-c2c(F)cc(Br)cc2F)c(-c2cc(F)ccc2Cl)cc(Cl)c1=O` [Compound 681] it was “H (H shows more than 50% of control values)”; in that of `CCn1c(-c2c(F)cc(F)cc2F)c(-c2cccc(F)c2C)cc(Br)c1=O` [Compound 682], “H (H shows more than 50% of control values)”; in that of `CCn1c(-c2c(F)cc(F)cc2F)c(-c2ccccc2Cl)cc(Br)c1=O` [Compound 683], “H (H shows more than 50% of control values)”.
In the case of `CCOc1cc(F)c(-c2c(-c3ccccc3Cl)ccc(=O)n2CC)c(F)c1` [Compound 685] it was “H (H shows more than 50% of control values)”; in that of `CCn1c(-c2c(F)cc(OC)cc2F)c(-c2ccccc2Cl)cc(Br)c1=O` [Compound 686], “H (H shows more than 50% of control values)”.
For `CCn1c(-c2c(F)cc(F)cc2F)c(-c2ccccc2Cl)cc(C)c1=O` [Compound 687], the “Test H” value is on record as “H (H shows more than 50% of control values)”.
In the case of `CCn1c(-c2c(F)cc(F)cc2F)c(-c2cc(F)cc(F)c2Cl)cc(C)c1=O` [Compound 689] it was “H (H shows more than 50% of control values)”; in that of `Cc1cc(F)c(-c2c(-c3cc(F)ccc3Cl)ccc(=O)n2C)c(F)c1` [Compound 690], “H (H shows more than 50% of control values)”; in that of `Cc1cc(F)c(-c2c(-c3cc(F)ccc3Cl)cc(Cl)c(=O)n2C)c(F)c1` [Compound 691], “H (H shows more than 50% of control values)”.
In the case of `CCn1c(-c2c(F)cc(Br)cc2F)c(-c2cc(F)ccc2Cl)ccc1=O` [Compound 692] it was “L (L shows 50% or less of control values)”; in that of `CCn1c(-c2c(F)cc(OC)cc2F)c(-c2cc(F)cc(F)c2Cl)ccc1=O` [Compound 693], “H (H shows more than 50% of control values)”.
In the case of `Cc1cc(-c2cc(F)cc(F)c2Cl)c(-c2c(F)cc(F)cc2F)n(C)c1=O` [Compound 694] it was “H (H shows more than 50% of control values)”.
Turning to `CCn1c(-c2c(F)cc(OC)cc2F)c(-c2cc(F)cc(F)c2Cl)cc(Br)c1=O` [Compound 695], the “Test H” value was “H (H shows more than 50% of control values)”.
In the case of `CCn1c(-c2c(F)cc(F)cc2F)c(-c2cc(OC)cc(OC)c2Cl)ccc1=O` [Compound 696] it was “H (H shows more than 50% of control values)”; in that of `CCn1c(-c2c(F)cc(OC)cc2F)c(-c2cccc(F)c2C)ccc1=O` [Compound 697], “H (H shows more than 50% of control values)”.
`CCOc1cc(F)c(-c2c(-c3cccc(F)c3C)ccc(=O)n2CC)c(F)c1` [Compound 698]: the “Test H” value was “H (H shows more than 50% of control values)”.
In the case of `CCn1c(-c2c(F)cc(OC)cc2F)c(-c2cccc(F)c2C)cc(Cl)c1=O` [Compound 699] it was “H (H shows more than 50% of control values)”.
In the case of `CCn1c(-c2c(F)cc(OC)cc2F)c(-c2ccccc2Cl)cc(C)c1=O` [Compound 701] it was “H (H shows more than 50% of control values)”.
In the case of `CCOc1cc(F)c(-c2c(-c3ccccc3Cl)cc(C)c(=O)n2CC)c(F)c1` [Compound 702] it was “H (H shows more than 50% of control values)”.
For `CCOc1cc(F)c(-c2c(-c3ccccc3Cl)cc(Br)c(=O)n2CC)c(F)c1` [Compound 703], the “Test H” value was “H (H shows more than 50% of control values)”.
In the case of `COc1ccc(Cl)c(C2=C(c3c(F)cccc3F)N(C#N)C(=O)CC2)c1` [Compound 704] it was “L (L shows 50% or less of control values)”; in that of `CN1C(=O)CCC(c2ccccc2Cl)=C1c1c(F)cc(F)cc1F` [Compound 705], “H (H shows more than 50% of control values)”.
In the case of `CCn1c(-c2c(F)cc(Br)cc2F)c(-c2cc(F)ccc2Cl)cc(Cl)c1=O` [Compound 706] it was “L (L shows 50% or less of control values)”; in that of `CCn1c(-c2c(F)cc(C)cc2F)c(-c2cc(F)ccc2Cl)ccc1=O` [Compound 707], “L (L shows 50% or less of control values)”.
Consider `CCn1c(-c2c(F)cc(C)cc2F)c(-c2cc(F)ccc2Cl)cc(Cl)c1=O` [Compound 708], for which the “Test H” value is given as “L (L shows 50% or less of control values)”.
In the case of `CCn1c(-c2c(F)cc(C)cc2F)c(-c2cc(F)ccc2Cl)cc(C)c1=O` [Compound 710] it was “H (H shows more than 50% of control values)”.
In the case of `CCn1c(-c2c(F)cc(OC)cc2F)c(-c2cccc(F)c2C)cc(Br)c1=O` [Compound 711] it was “H (H shows more than 50% of control values)”.
In the case of `CCOc1cc(F)c(-c2c(-c3cccc(F)c3C)cc(Br)c(=O)n2CC)c(F)c1` [Compound 712] it was “H (H shows more than 50% of control values)”; in that of `CCOc1cc(F)c(-c2c(-c3cccc(F)c3C)cc(C)c(=O)n2CC)c(F)c1` [Compound 713], “H (H shows more than 50% of control values)”.
`CCn1c(-c2c(F)cc(OC)cc2F)c(-c2cc(F)cc(F)c2Cl)cc(C)c1=O` [Compound 714]: the “Test H” value was “H (H shows more than 50% of control values)”.
In the case of `CCn1c(-c2c(F)cc(F)cc2F)c(-c2ccccc2Cl)ccc1=O` [Compound 715] it was “H (H shows more than 50% of control values)”; in that of `CCn1c(-c2c(F)cc(OC)cc2F)c(-c2cc(OC)cc(OC)c2Cl)ccc1=O` [Compound 716], “H (H shows more than 50% of control values)”.
In the case of `COc1cc(F)c(-c2c(-c3cc(F)cc(F)c3Cl)cc(Br)c(=O)n2C)c(F)c1` [Compound 717] it was “H (H shows more than 50% of control values)”.
In the case of `CCn1c(-c2c(F)cc(OC)cc2F)c(-c2ccccc2Cl)ccc1=O` [Compound 718] it was “H (H shows more than 50% of control values)”; in that of `Cn1c(-c2c(F)cc(F)cc2F)c(-c2ccccc2Cl)cc(Br)c1=O` [Compound 720], “H (H shows more than 50% of control values)”.
Regarding `COc1cc(F)c(-c2c(-c3cc(OC)ccc3Cl)ccc(=O)n2C)c(F)c1` [Compound 721], the “Test H” value is “H (H shows more than 50% of control values)”.
In the case of `COc1cc(F)c(-c2c(-c3cc(OC)ccc3Cl)cc(Cl)c(=O)n2C)c(F)c1` [Compound 722] it was “H (H shows more than 50% of control values)”.
In the case of `COc1cc(F)c(-c2c(-c3cc(OC)ccc3Cl)cc(C)c(=O)n2C)c(F)c1` [Compound 724] it was “H (H shows more than 50% of control values)”.
In the case of `COc1ccc(Cl)c(-c2cc(Br)c(=O)n(C)c2-c2c(F)cc(F)cc2F)c1` [Compound 725] it was “H (H shows more than 50% of control values)”.
